Drawing on PMC12136788, this text covers binding signal for six molecules.

This is one part of the list.

First the molecules themselves.
T1: UNK ZnF1-3 (human, UniProt Q9C0B0 31-174)
T1 sequence: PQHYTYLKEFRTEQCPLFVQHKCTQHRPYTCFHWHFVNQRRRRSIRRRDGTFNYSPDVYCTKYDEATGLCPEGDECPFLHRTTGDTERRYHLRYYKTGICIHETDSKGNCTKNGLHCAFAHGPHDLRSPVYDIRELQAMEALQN

B1: 44043828_44043948_361_CDS_ENSG00000167004_ENST00000538521|human|control|control (ssRNA)
RNA: GGGAGUUCUACAGUCCGACGAUCAAUCUCCAGAAAUCUGGGGAGCAACCAGGUGUGUGUGUAAGCUGCAAGGCUGGGACUAAAAUCCACUGCCUUAAACUUUGGCAAUAUCCAUAAGGUCAUCAAAUCCACAAAAAGAGUUUCCAACAGAGGAUUGAGCAUCA
B2: 193605556_193605676_4715_3pUTR_ENSMUSG00000026623_ENSMUST00000110855|mouse|control|control (ssRNA)
RNA: GGGAGUUCUACAGUCCGACGAUCGAUUAUAACUAGGAACAACUAGUUGAGCAAGUCUUUAAGGUACCGAUUGUCAAAAUACAUCACUAAGACAAAUUAAUGAGAAGGAAUCCACAAGGCGUGAGUGAGAGAGCAUCCUCAGCACAACAGAGGAUUGAGCAUCA
B3: chr6:145166005:145166006:-_ENSMUSG00000030265_ENSMUST00000032399|mus_mus|FALSE|FALSE (ssRNA)
RNA: GGGAGUUCUACAGUCCGACGAUCCAGUAUUACACAGAAGUUAUUGAGUAUAAAUUCACCUUUAAAUAACUUUUGGGUUUAAAAAAUGACUGCAUAAUUCUCAAUAAAUCACUACUUUUUAACAAAUGGAAAUUAGUUAAAUUUCAACAGAGGAUUGAGCAUCA
B4: chr16:14738297:14738298:+_ENSG00000103429_ENST00000261658|hu_hu|FALSE|FALSE (ssRNA)
RNA: GGGAGUUCUACAGUCCGACGAUCGUUCAAGGUGGUGGGGUUAACCAGGAUGUCGUAGCAGCAGUGGCAAGAAAAUUCACUAACAGAAAUCUGAGGGCCGGUGCUUUUGAGAGGUUCAUCUCUCUCAAGGUCCAUUGUGUUCACCAACAGAGGAUUGAGCAUCA
B5: 99152206_99152609_738_CDS_ENSG00000040933_ENST00000545415|human|control|control (ssRNA)
RNA: GGGAGUUCUACAGUCCGACGAUCAGAGCCCAGUAAAUACAUUGUUCCCUGAGAUCUAUCUUUGACAUCAUACACGGAGAGUUUGACUUGUGUCAUCUGAUUGAUAAGAGAGUCUUGAAAGAAGGCAAUACUGCUUAGAAAUAUCAACAGAGGAUUGAGCAUCA
B6: chr2:173429262:173429263:+_ENSG00000152256_ENST00000410055|hu_hu|FALSE|FALSE (ssRNA)
RNA: GGGAGUUCUACAGUCCGACGAUCGCUCUCCUUGUAUUCAAUCACACCCUGGGCCAUUGUGGGAAUGACAUCAUUGUGUCGGUUUCUGAUCCGUAUCACAGUAUCUGUAAAGUCAUAAAUAGCUUUAGCAUCCUCAGCACUUUUCAACAGAGGAUUGAGCAUCA

The target in the assay is T1, UNK ZnF1-3. In words: nsRBNS (natural sequence RNA bind-n-seq); RBNS binding buffer (assumed for nsRBNS): 25 mM Tris pH 7.5, 150 mM KCl, 3 mM MgCl2, 0.01% Triton X-100, 500 ug/ml BSA, 20 U/ml SUPERase-In, 4 C; UNK is unkempt and MSI1 is Musashi-1; names of the RNAs are library labels; protein concentration not given here; high values mean tight binding.
B1 gave a binding signal of 1.41 enrichment R.

Turning to B2, the binding signal amounted to 2.29 enrichment R.

Consider B3, for which the binding signal worked out at 2.63 enrichment R.

The molecule B4 showed a binding signal of 1.1 enrichment R.

B5 yielded a binding signal of 1.08 enrichment R.

For B6, the binding signal turned out to be 1.01 enrichment R.
